Consider 3 compounds from paper PMC7560015, “Indoline-6-Sulfonamide Inhibitors of the Bacterial Enzyme DapE” (Antibiotics, 2020).

Like-named read-outs stand apart in the source and are kept apart here. Some values that stand alone complete this part of the results.

The term melting point denotes the temperature, or range, at which the solid turns liquid.

`CC(=O)N1CCc2cc(Br)c(S(=O)(=O)NCC(C)C)cc21` [9a, 1-Acetyl-5-Bromo-N-Isobutylindoline-6-Sulfonamide]: the melting point by setting is: (melting range) 225.4 to 226.1 °C; (softens) 215 °C.
For `CC(=O)N1CCc2cc(Br)c(S(=O)(=O)NC(C)(C)C)cc21` [9d, 1-Acetyl-5-Bromo-N-(Tert-Butyl)Indoline-6-Sulfonamide], in that order: 235.7 to 236.1 °C and 224.4 °C.
Consider `CC(=O)N1CCc2cc(Cl)c(S(=O)(=O)NCCC(C)C)cc21` [10a, 1-Acetyl-5-Chloro-N-Isopentylindoline-6-Sulfonamide], for which the melting point (melting range) lay in the range of 179.1 to 180.4 °C and the melting point (softens) stood at 174 °C.
